The results in this text go back to a collection of fitness landscapes (doi:10.1016/j.celrep.2020.107928).

The chains are these.
B1: Caulobacter ParB omega fusion; a variant is named by its letters at X, in order, B8GW30 (parent)
chain: MESVVVGEPGMSEGRRGLGRGLSALLGEVDAAPAQAPGEQLGGSREAPIEILQRNPDQPRRTFREEDLEDLSNSIREKGVLQPILVRPSPDTAGEYQIVAGERAWRAAQRAGLKTVPIMVRELDDLAVLEIGIIENVQRADLNVLEEALSYKVLMEKFERTQENIAQTIGKSXSHVANXMRLLXLPDEVQSYLVSGELTAXHARAIAAAADPVALAKQIIEGGLSVRETEALARKAPNLSAGKSKGGRPPRVKDTDTQALESDLSSVLGLDVSIDHRGSTGTLTITYATLEQLDDLCNRLTRGI

The full ranking holds about 81,000 sequences; the median of “one-hybrid fitness for binding parS DNA” is about -0.17, and the highest 2% start at about 0.51. The list shows a part of the results.

The variants in the assay derive from B1. As to the kind of experiment: one-hybrid fitness for binding parS DNA (scaled: cognate 1, non-cognate 0); higher = stronger binding. Conditions: with parS DNA site. In short, it runs like this:
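Fitness here means the log change in variant-to-wild-type read ratio between plasmids sequenced before and after selection. That scale was set so cognate equals 1 and non-cognate equals 0. The selection was a bacterial one-hybrid screen of Caulobacter ParB libraries, four specificity codons randomised, in E. coli USO carrying a HIS3 reporter with the site 19 bp from the promoter, grown 48 hours at 37°C on M9-minus-histidine with 0.1 mM IPTG and 5 mM 3-AT.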
For the variant HQLL, the “one-hybrid fitness for binding parS DNA” value was at most 0.2.

For the variant DPAM, the “one-hybrid fitness for binding parS DNA” value is at most 0.2.

Take SLSW: the “one-hybrid fitness for binding parS DNA” value was at most 0.2.

Consider RCHR, for which the “one-hybrid fitness for binding parS DNA” value was at most 0.2.

For the variant VFKS, the “one-hybrid fitness for binding parS DNA” value was at most 0.2.

Consider AVNH, for which the “one-hybrid fitness for binding parS DNA” value was at most 0.2.

In the case of HPCK, the “one-hybrid fitness for binding parS DNA” value was at most 0.2.

As to HAPI, the “one-hybrid fitness for binding parS DNA” value was at most 0.2.

In the case of KEIA, the “one-hybrid fitness for binding parS DNA” value was at most 0.2.

VLHT: the “one-hybrid fitness for binding parS DNA” value was at most 0.2.

With TAQP, the “one-hybrid fitness for binding parS DNA” value is at most 0.2.

For SADW, the “one-hybrid fitness for binding parS DNA” value was at most 0.2.

For the variant KIAC, the “one-hybrid fitness for binding parS DNA” value is at most 0.2.

For the variant QVMS, the “one-hybrid fitness for binding parS DNA” value was at most 0.2.

With DTTC, the “one-hybrid fitness for binding parS DNA” value is at most 0.2.

As to TPFR, the “one-hybrid fitness for binding parS DNA” value was at most 0.2.

HGAG: the “one-hybrid fitness for binding parS DNA” value is at most 0.2.

As to EVFT, the “one-hybrid fitness for binding parS DNA” value is at most 0.2.

As for IPHG, the “one-hybrid fitness for binding parS DNA” value was at most 0.2.

HAFN: the “one-hybrid fitness for binding parS DNA” value was at most 0.2.

Take NTHS: the “one-hybrid fitness for binding parS DNA” value is at most 0.2.

As to DPTA, the “one-hybrid fitness for binding parS DNA” value was at most 0.2.

Consider PWGT, for which the “one-hybrid fitness for binding parS DNA” value was at most 0.2.

For the variant RNCD, the “one-hybrid fitness for binding parS DNA” value was at most 0.2.

As to QLLI, the “one-hybrid fitness for binding parS DNA” value was at most 0.2.

For LRCW, the “one-hybrid fitness for binding parS DNA” value is at most 0.2.

For VDHR, the “one-hybrid fitness for binding parS DNA” value was at most 0.2.

Consider SVSS, for which the “one-hybrid fitness for binding parS DNA” value was at most 0.2.

With NVND, the “one-hybrid fitness for binding parS DNA” value is at most 0.2.

For the variant YMQT, the “one-hybrid fitness for binding parS DNA” value is at most 0.2.

In the case of DAHP, the “one-hybrid fitness for binding parS DNA” value was at most 0.2.

With TCTE, the “one-hybrid fitness for binding parS DNA” value is at most 0.2.

As to TLTF, the “one-hybrid fitness for binding parS DNA” value is at most 0.2.

With RKMQ, the “one-hybrid fitness for binding parS DNA” value is at most 0.2.

As to SQFS, the “one-hybrid fitness for binding parS DNA” value is at most 0.2.

ATTI: the “one-hybrid fitness for binding parS DNA” value was at most 0.2.

Regarding YARR, the “one-hybrid fitness for binding parS DNA” value is at most 0.2.

Consider CHLE, for which the “one-hybrid fitness for binding parS DNA” value is at most 0.2.

Regarding RSNG, the “one-hybrid fitness for binding parS DNA” value worked out at 1.

As to RSFY, the “one-hybrid fitness for binding parS DNA” value is 0.456.

For the variant RCCP, the “one-hybrid fitness for binding parS DNA” value is 0.223.

As to AARC, the “one-hybrid fitness for binding parS DNA” value was at most 0.2.

On to WYGL, for which the “one-hybrid fitness for binding parS DNA” value is at most 0.2.

On to RAVK, for which the “one-hybrid fitness for binding parS DNA” value was at most 0.2.

MCGR: the “one-hybrid fitness for binding parS DNA” value was at most 0.2.

SYPC: the “one-hybrid fitness for binding parS DNA” value was at most 0.2.

Turning to QKLK, the “one-hybrid fitness for binding parS DNA” value is at most 0.2.

In the case of GNND, the “one-hybrid fitness for binding parS DNA” value is at most 0.2.

INAK: the “one-hybrid fitness for binding parS DNA” value is at most 0.2.

Take ASGA: the “one-hybrid fitness for binding parS DNA” value was at most 0.2.

For WNTP, the “one-hybrid fitness for binding parS DNA” value was at most 0.2.

SGCI: the “one-hybrid fitness for binding parS DNA” value is at most 0.2.

Take WAYS: the “one-hybrid fitness for binding parS DNA” value is at most 0.2.

Consider YVER, for which the “one-hybrid fitness for binding parS DNA” value is at most 0.2.

Consider HPTN, for which the “one-hybrid fitness for binding parS DNA” value is at most 0.2.

As for DSCC, the “one-hybrid fitness for binding parS DNA” value was at most 0.2.

On to TQHP, for which the “one-hybrid fitness for binding parS DNA” value is at most 0.2.

With FRRH, the “one-hybrid fitness for binding parS DNA” value is at most 0.2.

Turning to NETN, the “one-hybrid fitness for binding parS DNA” value is at most 0.2.

On to PAYI, for which the “one-hybrid fitness for binding parS DNA” value is at most 0.2.

As to KVKC, the “one-hybrid fitness for binding parS DNA” value is at most 0.2.

Take QCFD: the “one-hybrid fitness for binding parS DNA” value was at most 0.2.

Take EMPG: the “one-hybrid fitness for binding parS DNA” value is at most 0.2.

For SNIN, the “one-hybrid fitness for binding parS DNA” value was at most 0.2.

Regarding NFYF, the “one-hybrid fitness for binding parS DNA” value is at most 0.2.

HSTI: the “one-hybrid fitness for binding parS DNA” value was at most 0.2.

With RGPW, the “one-hybrid fitness for binding parS DNA” value is at most 0.2.

With HTRI, the “one-hybrid fitness for binding parS DNA” value was at most 0.2.

On to YYCS, for which the “one-hybrid fitness for binding parS DNA” value was at most 0.2.

For MRFC, the “one-hybrid fitness for binding parS DNA” value was at most 0.2.

PDWE: the “one-hybrid fitness for binding parS DNA” value was at most 0.2.

As to SPQS, the “one-hybrid fitness for binding parS DNA” value is at most 0.2.

Consider IDTC, for which the “one-hybrid fitness for binding parS DNA” value is at most 0.2.

Take VNTH: the “one-hybrid fitness for binding parS DNA” value is at most 0.2.

Take ANCC: the “one-hybrid fitness for binding parS DNA” value was at most 0.2.

As to LWQE, the “one-hybrid fitness for binding parS DNA” value was at most 0.2.

On to RFER, for which the “one-hybrid fitness for binding parS DNA” value was at most 0.2.

As to VPTR, the “one-hybrid fitness for binding parS DNA” value is at most 0.2.

With PWVT, the “one-hybrid fitness for binding parS DNA” value is at most 0.2.

QCEW: the “one-hybrid fitness for binding parS DNA” value is at most 0.2.

Take WPSF: the “one-hybrid fitness for binding parS DNA” value is at most 0.2.

AVLW: the “one-hybrid fitness for binding parS DNA” value is at most 0.2.

Consider RHYS, for which the “one-hybrid fitness for binding parS DNA” value turned out to be 0.976.

As to GKQV, the “one-hybrid fitness for binding parS DNA” value was at most 0.2.

As for QNLQ, the “one-hybrid fitness for binding parS DNA” value was at most 0.2.

For TSMA, the “one-hybrid fitness for binding parS DNA” value is at most 0.2.

RNDC: the “one-hybrid fitness for binding parS DNA” value was 0.617.

For CSMC, the “one-hybrid fitness for binding parS DNA” value was at most 0.2.

As for CSGC, the “one-hybrid fitness for binding parS DNA” value was at most 0.2.

With RQWF, the “one-hybrid fitness for binding parS DNA” value was at most 0.2.

As for KFQV, the “one-hybrid fitness for binding parS DNA” value is at most 0.2.

With HPAL, the “one-hybrid fitness for binding parS DNA” value was at most 0.2.

Turning to ELGR, the “one-hybrid fitness for binding parS DNA” value is at most 0.2.

For SFLR, the “one-hybrid fitness for binding parS DNA” value is at most 0.2.

For QQLD, the “one-hybrid fitness for binding parS DNA” value was at most 0.2.

As to FFDS, the “one-hybrid fitness for binding parS DNA” value is at most 0.2.

Take TQNG: the “one-hybrid fitness for binding parS DNA” value is at most 0.2.

As for PRPF, the “one-hybrid fitness for binding parS DNA” value was at most 0.2.

As to LSTT, the “one-hybrid fitness for binding parS DNA” value was at most 0.2.

With LTCP, the “one-hybrid fitness for binding parS DNA” value came to 0.263.

Take TVNW: the “one-hybrid fitness for binding parS DNA” value was at most 0.2.

WNRG: the “one-hybrid fitness for binding parS DNA” value is at most 0.2.

Regarding TGAM, the “one-hybrid fitness for binding parS DNA” value is at most 0.2.

In the case of CLFV, the “one-hybrid fitness for binding parS DNA” value is at most 0.2.

For IVCG, the “one-hybrid fitness for binding parS DNA” value is at most 0.2.

REYR: the “one-hybrid fitness for binding parS DNA” value is at most 0.2.

As for LRSQ, the “one-hybrid fitness for binding parS DNA” value is at most 0.2.

Turning to DHTI, the “one-hybrid fitness for binding parS DNA” value was at most 0.2.

Regarding YELG, the “one-hybrid fitness for binding parS DNA” value is at most 0.2.

Regarding GMKT, the “one-hybrid fitness for binding parS DNA” value was at most 0.2.

Regarding NPPH, the “one-hybrid fitness for binding parS DNA” value was at most 0.2.

Regarding LIPA, the “one-hybrid fitness for binding parS DNA” value was at most 0.2.

In the case of CLWG, the “one-hybrid fitness for binding parS DNA” value was at most 0.2.

With RMAR, the “one-hybrid fitness for binding parS DNA” value was at most 0.2.

Turning to APTK, the “one-hybrid fitness for binding parS DNA” value is at most 0.2.

For GLNK, the “one-hybrid fitness for binding parS DNA” value is at most 0.2.

On to HQRS, for which the “one-hybrid fitness for binding parS DNA” value is at most 0.2.

On to HAVT, for which the “one-hybrid fitness for binding parS DNA” value is at most 0.2.

Consider RPRV, for which the “one-hybrid fitness for binding parS DNA” value is at most 0.2.

With DKNR, the “one-hybrid fitness for binding parS DNA” value is at most 0.2.

For the variant IRVE, the “one-hybrid fitness for binding parS DNA” value is at most 0.2.

For PMPL, the “one-hybrid fitness for binding parS DNA” value was at most 0.2.

In the case of WADF, the “one-hybrid fitness for binding parS DNA” value is at most 0.2.

As for CGTG, the “one-hybrid fitness for binding parS DNA” value was at most 0.2.

Regarding CPNT, the “one-hybrid fitness for binding parS DNA” value is at most 0.2.

Consider HGCK, for which the “one-hybrid fitness for binding parS DNA” value was at most 0.2.

In the case of KRLQ, the “one-hybrid fitness for binding parS DNA” value is at most 0.2.

As to TQGG, the “one-hybrid fitness for binding parS DNA” value was at most 0.2.

For the variant IMNT, the “one-hybrid fitness for binding parS DNA” value is at most 0.2.

Take PSHC: the “one-hybrid fitness for binding parS DNA” value was at most 0.2.

For the variant HWVP, the “one-hybrid fitness for binding parS DNA” value is at most 0.2.

Consider YKRG, for which the “one-hybrid fitness for binding parS DNA” value is at most 0.2.

On to LSHQ, for which the “one-hybrid fitness for binding parS DNA” value is at most 0.2.

For the variant GRFP, the “one-hybrid fitness for binding parS DNA” value is at most 0.2.

As to RIVL, the “one-hybrid fitness for binding parS DNA” value was at most 0.2.

WALG: the “one-hybrid fitness for binding parS DNA” value is at most 0.2.

For the variant TVQM, the “one-hybrid fitness for binding parS DNA” value is at most 0.2.

For the variant RPEV, the “one-hybrid fitness for binding parS DNA” value is at most 0.2.

In the case of SNHL, the “one-hybrid fitness for binding parS DNA” value is at most 0.2.

As for WNGF, the “one-hybrid fitness for binding parS DNA” value is at most 0.2.

Regarding QPCT, the “one-hybrid fitness for binding parS DNA” value is at most 0.2.

On to GPPF, for which the “one-hybrid fitness for binding parS DNA” value was at most 0.2.

As for TSQC, the “one-hybrid fitness for binding parS DNA” value was at most 0.2.

Turning to PMTY, the “one-hybrid fitness for binding parS DNA” value is at most 0.2.

On to VKSA, for which the “one-hybrid fitness for binding parS DNA” value is at most 0.2.

Consider YNDR, for which the “one-hybrid fitness for binding parS DNA” value was at most 0.2.

Turning to IFHG, the “one-hybrid fitness for binding parS DNA” value was at most 0.2.

As for TAGQ, the “one-hybrid fitness for binding parS DNA” value is at most 0.2.

As for RPWR, the “one-hybrid fitness for binding parS DNA” value was at most 0.2.

Regarding WATS, the “one-hybrid fitness for binding parS DNA” value was at most 0.2.

ACTC: the “one-hybrid fitness for binding parS DNA” value is at most 0.2.

For TLFC, the “one-hybrid fitness for binding parS DNA” value was at most 0.2.

Turning to EELK, the “one-hybrid fitness for binding parS DNA” value was at most 0.2.
